Experiment [1] has as its target T1, NLP I62E, V5-tagged (Drosophila) (UniProt Q27415).
T1 sequence: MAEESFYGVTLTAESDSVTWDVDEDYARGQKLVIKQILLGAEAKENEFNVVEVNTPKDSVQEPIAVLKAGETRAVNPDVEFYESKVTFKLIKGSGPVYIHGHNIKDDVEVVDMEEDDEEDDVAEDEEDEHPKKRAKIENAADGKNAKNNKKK
The experiment in a line: co-IP; S2 cells co-transfected with V5- and HA-tagged constructs; nuclear lysate with Benzonase, 300 mM then 150 mM NaCl, 0.5% IGEPAL CA-630; rabbit anti-V5 antibody and Protein A Dynabeads; western blot with anti-V5 and anti-HA.

The target in experiment [2] is T2, NLP V79E, V5-tagged (Drosophila) (UniProt Q27415).
T2 sequence: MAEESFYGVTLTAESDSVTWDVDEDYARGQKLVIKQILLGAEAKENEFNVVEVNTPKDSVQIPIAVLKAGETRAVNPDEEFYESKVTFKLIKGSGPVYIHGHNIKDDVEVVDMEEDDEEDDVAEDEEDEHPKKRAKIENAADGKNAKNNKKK
The experiment is described as above.

In experiment [3] the target is T3, NLP F6E/I62E/V79E triple mutant, V5-tagged (Drosophila) (UniProt Q27415).
T3 sequence: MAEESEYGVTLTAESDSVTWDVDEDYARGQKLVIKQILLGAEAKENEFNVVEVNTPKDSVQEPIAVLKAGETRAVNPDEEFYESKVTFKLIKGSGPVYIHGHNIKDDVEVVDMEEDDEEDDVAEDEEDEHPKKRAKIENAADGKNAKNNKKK
Described as above.

The target of experiment [4] is T4, NLP F6E, V5-tagged (Drosophila) (UniProt Q27415).
T4 sequence: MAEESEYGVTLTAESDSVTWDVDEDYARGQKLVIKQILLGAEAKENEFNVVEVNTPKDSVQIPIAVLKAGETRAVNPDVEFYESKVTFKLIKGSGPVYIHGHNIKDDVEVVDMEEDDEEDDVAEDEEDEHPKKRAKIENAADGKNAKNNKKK
Described as above.

In experiment [5] the target is T5, Nucleoplasmin-Like Protein, V5-tagged (NLP-V5) (Drosophila) (UniProt Q27415).
T5 sequence: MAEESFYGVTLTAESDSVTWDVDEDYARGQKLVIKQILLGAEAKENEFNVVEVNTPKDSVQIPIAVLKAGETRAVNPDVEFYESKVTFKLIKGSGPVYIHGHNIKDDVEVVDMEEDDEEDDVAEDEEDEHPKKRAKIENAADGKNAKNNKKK
The description is as above.

Experiment [6] addresses T6, NLP N76R, V5-tagged (Drosophila) (UniProt Q27415).
T6 sequence: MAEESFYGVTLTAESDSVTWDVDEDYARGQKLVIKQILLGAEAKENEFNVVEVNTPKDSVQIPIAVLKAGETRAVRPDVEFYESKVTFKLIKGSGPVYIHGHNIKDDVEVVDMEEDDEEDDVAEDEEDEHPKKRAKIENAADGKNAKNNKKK
The description is as above.

For experiment [7], the target named is T5, Nucleoplasmin-Like Protein, V5-tagged (NLP-V5) (Drosophila). The experiment in a line: SDS-PAGE and western blot of a thermostable high-molecular weight species; proteins overexpressed in S2 cells, western blot (Supplementary Figure S1B).

No constants are given. Whether binding was seen depends on the method and setting. For some of these results: Binding seen in cells or lysates may run through a third protein. Some results given as binding are weak or reduced against the parent protein; the word gives no strength. Where a sequence is shown, tags or fusion partners need not be part of it.

B1: Nucleoplasmin-Like Protein, HA-tagged (NLP-HA) (protein, UniProt Q27415 1-152)
chain: MAEESFYGVTLTAESDSVTWDVDEDYARGQKLVIKQILLGAEAKENEFNVVEVNTPKDSVQIPIAVLKAGETRAVNPDVEFYESKVTFKLIKGSGPVYIHGHNIKDDVEVVDMEEDDEEDDVAEDEEDEHPKKRAKIENAADGKNAKNNKKK
With B1, the binding entry in experiment [1] is recorded as “binds weakly”; in experiment [2] it was “no binding”; in experiment [3], “no binding”; in experiment [4], “no binding”; in experiment [5], “binds”.

B2: NLP N76R, HA-tagged (protein, UniProt Q27415 1-152)
chain: MAEESFYGVTLTAESDSVTWDVDEDYARGQKLVIKQILLGAEAKENEFNVVEVNTPKDSVQIPIAVLKAGETRAVRPDVEFYESKVTFKLIKGSGPVYIHGHNIKDDVEVVDMEEDDEEDDVAEDEEDEHPKKRAKIENAADGKNAKNNKKK
In the case of B2, the binding entry in experiment [6] is recorded as “binds”.

B3: Nucleoplasmin-Like Protein, V5-tagged (NLP-V5) (protein, UniProt Q27415 1-152)
chain: MAEESFYGVTLTAESDSVTWDVDEDYARGQKLVIKQILLGAEAKENEFNVVEVNTPKDSVQIPIAVLKAGETRAVNPDVEFYESKVTFKLIKGSGPVYIHGHNIKDDVEVVDMEEDDEEDDVAEDEEDEHPKKRAKIENAADGKNAKNNKKK
Consider B3, for which the binding result in experiment [7] is listed as “binds”.

The record behind these values is publication PMC6277087.
